# Test results from paper PMC4336329 (PLoS ONE, 2015).
# The campaign covered roughly 310,000 compounds. About 14,000 (4.5%) showed an effect of 50% or more. Effects have a minus sign here. Some of the results follow.
# Target: human ether-à-go-go-related gene (hERG) potassium channel (human, UniProt Q12809)
# Assay: primary screen, population patch clamp on CHO cells stably expressing hERG
# 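Also: peak tail current of the secondary pulse compared with the same well before compound.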
# human ether-à-go-go-related gene (hERG) potassium channel, sequence (Q12809 whole entry, looked up): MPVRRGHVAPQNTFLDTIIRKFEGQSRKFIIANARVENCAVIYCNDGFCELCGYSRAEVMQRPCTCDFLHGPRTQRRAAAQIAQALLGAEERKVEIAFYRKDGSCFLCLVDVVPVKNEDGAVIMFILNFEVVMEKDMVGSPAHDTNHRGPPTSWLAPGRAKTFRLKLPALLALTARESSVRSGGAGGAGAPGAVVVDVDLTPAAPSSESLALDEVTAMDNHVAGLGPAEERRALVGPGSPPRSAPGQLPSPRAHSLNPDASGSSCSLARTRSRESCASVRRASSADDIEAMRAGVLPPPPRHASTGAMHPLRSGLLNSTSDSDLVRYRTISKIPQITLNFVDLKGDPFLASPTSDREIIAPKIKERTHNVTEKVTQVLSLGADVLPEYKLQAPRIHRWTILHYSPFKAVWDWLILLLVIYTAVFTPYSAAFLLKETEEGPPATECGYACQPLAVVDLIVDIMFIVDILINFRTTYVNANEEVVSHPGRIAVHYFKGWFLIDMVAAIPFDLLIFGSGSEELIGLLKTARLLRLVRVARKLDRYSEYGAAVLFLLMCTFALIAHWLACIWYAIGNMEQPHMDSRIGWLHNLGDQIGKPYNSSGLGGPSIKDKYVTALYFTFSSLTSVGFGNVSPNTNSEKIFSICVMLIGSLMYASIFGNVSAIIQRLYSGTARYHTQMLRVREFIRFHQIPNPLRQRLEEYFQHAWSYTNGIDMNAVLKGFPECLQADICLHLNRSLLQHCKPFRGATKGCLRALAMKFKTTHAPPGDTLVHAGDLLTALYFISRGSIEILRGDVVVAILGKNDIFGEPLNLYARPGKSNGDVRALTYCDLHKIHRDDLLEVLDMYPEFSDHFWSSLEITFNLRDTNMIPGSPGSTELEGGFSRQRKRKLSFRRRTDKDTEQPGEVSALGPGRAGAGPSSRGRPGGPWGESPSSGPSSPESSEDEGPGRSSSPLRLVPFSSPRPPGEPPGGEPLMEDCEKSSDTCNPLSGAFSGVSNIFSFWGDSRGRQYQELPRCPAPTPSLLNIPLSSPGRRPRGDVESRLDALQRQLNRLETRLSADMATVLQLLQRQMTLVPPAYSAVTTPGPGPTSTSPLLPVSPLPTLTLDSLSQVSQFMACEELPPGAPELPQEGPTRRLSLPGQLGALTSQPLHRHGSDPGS
row,SMILES,"hERG current change (%, negative = inhibition) at 10uM [%]"
1,O=C(CCCCn1c(=O)[nH]c2ccccc2c1=O)N1CCN(c2cccc(C(F)(F)F)c2)CC1,-56.1
2,O=C(CSCc1nc2ccccc2[nH]1)Nc1ccc(Oc2ccccc2)cc1,-6.95
3,Cc1cccc(-c2noc(-c3ccoc3C)n2)c1,-24.1
4,NC(=O)[C@H]1CC2(CC(c3cccc(NC(=O)COc4ccc(Cl)cc4)c3)=NO2)CN1C(=O)C(c1ccccc1)c1ccccc1 (stereo partly shown),6.98
5,Cc1ccc(C(=O)NNC(=O)C(C)Oc2ccc3ccccc3c2)o1 (stereo not shown),-13.2
6,Cc1ccc(-n2c(CSc3nc(C)cc(C)n3)nnc2SCC(=O)N2CCCC2)cc1,-8.81
7,CCOC(=O)C1=C(CS(=O)(=O)c2ccccc2)NC(=O)NC1c1ccccc1OC (stereo not shown),12.3
8,N#CCC1c2ccccc2CCN1C(=O)Nc1ccc(Cl)cc1 (stereo not shown),-16.3
9,O=C(CSc1nncs1)Nc1ccc2c(c1)OCO2,48.4
10,Clc1ccc(N=c2ssnc2Cl)cc1,17.4
11,CCSC1=C(C#N)C2(CCCCC2)C(C#N)=C(N)N1,-0.905
12,CCOC(=O)C1CCN(S(=O)(=O)c2cc(F)ccc2OC)CC1,-8.23
13,CCOc1cc(NC(=O)CCl)c(OCC)cc1NC(=O)CCl,5.56
14,COC(=O)C1=C(c2cccc(OCc3ccccc3)c2)C[C@@H]2CC[C@H]1N2C(=O)NCc1cc(C)oc1C(F)(F)F,-4.89
15,CC(=O)c1c(C)[nH]c(C(=O)Nc2ccc(Cl)cc2F)c1C,0.923
16,COc1cc(OC)cc(C(=O)N[C@H](C(=O)OCC(=O)Nc2ccc(F)c(F)c2)C(C)C)c1,-8.85
17,CCN(CC(=O)Nc1ccccc1-c1ccccc1)Cc1nc2ccccc2c(=O)[nH]1,-23.4
18,CC1CC2C3CCC4=CC(=O)C=CC4(C)C3(F)C(O)CC2(C)C1(O)C(=O)CO (stereo not shown),11.1
19,Cn1cccc1C(=O)OCC(=O)c1cc2ccccc2o1,5.27
20,COc1ccc(C(=O)Nc2cccc3c2CCCC3)cc1,15.5
21,COCCCNC(=O)C1CC(=O)N(CCc2ccc(F)cc2)C1 (stereo not shown),6.62
22,Cc1cccc(C2c3[nH]c4ccccc4c3CCN2C(=O)c2cc3c([nH]c2=O)CCCC3)n1 (stereo not shown),-11.6

row,SMILES,"hERG current change (%, negative = inhibition) at 10uM [%]"
1,COC(=O)C1=C(C)Nc2ncnn2C1c1ccccn1 (stereo not shown),2.71
2,Cc1cc(S(=O)(=O)N(C)CCc2ccccc2)ccc1-n1cnnn1,-34
3,COc1ccc2[nH]c3c(c2c1)[C@@H]1CCN2C(=O)CCC[C@H](C3)[C@H]12,-23.1
4,Cc1sc(NC(=O)C2CSC3(C)CCC(=O)N23)nc1-c1ccccc1 (stereo not shown),-8.22
5,CCCc1nnc(NC(=O)c2cccs2)s1,20.1
6,CCn1cc(C(=S)N2CCC(C(N)=O)CC2)c2ccccc21,3.49
7,CCn1ccc(C(=O)Nc2c(C)nn(Cc3c(F)c(F)c(F)c(F)c3F)c2C)n1,26.7
8,CC(=O)N1CCCc2cc(S(=O)(=O)CCC(=O)Nc3cccc(C)c3C)ccc21,7.92
9,S=c1[nH]nc(C2CCCCC2)n1/N=C/c1ccc(Cl)cc1,8.98
10,CCn1c(O)c(N=NC2=NC(=O)CS2)c2cc(C)ccc21,14.4
11,CC(=O)Nc1ccc(S(=O)(=O)N2CCN(C(=O)C3COc4ccccc4O3)CC2)cc1 (stereo not shown),-7.33
12,COCCNC(=O)C(c1cccc(OC)c1)N(Cc1cccs1)C(=O)Cn1nnc2ccccc21 (stereo not shown),15
13,O=S(=O)(c1ccc(SCc2cccc(Cl)c2)nc1)N1CCCC1,-9.81
14,O=C(COc1ccccc1-c1ccccc1)c1ccccc1,-26.7
15,Oc1c(CN2CCN(c3ccccn3)CC2)cc(Cl)c2cccnc12,-48.7
16,O=C(O)CSCC(=O)Nc1ccc(C2CCCCC2)cc1,2.24
17,COc1ccccc1CCNC(=O)C(=O)NCC1OCCN1S(=O)(=O)c1ccc(Cl)cc1 (stereo not shown),-22.3
18,Cc1nn2c(-n3ccnc3C)c3c(nc2c1-c1ccccc1)CCC3,-29.6
19,CCCCC(=O)c1ccc(O)cc1O,-1.99
20,CCC1CCCCN1CCCNC(=O)Cn1ncn2nc(-c3ccc(OC)cc3)cc2c1=O (stereo not shown),-42.1
21,CC1CCN(C(=O)c2cc(-c3ccc(Cl)c(Cl)c3)on2)CC1,5.97
22,CS(=O)(=O)N1CCc2cc(C(=O)Nc3ccc(Cl)cc3)ccc21,3.06

row,SMILES,"hERG current change (%, negative = inhibition) at 10uM [%]"
1,O=C(Nc1ccc(N2CCN(C(=O)c3ccco3)CC2)cc1)c1cccc(F)c1,-44.8
2,CCOC(=O)c1ccc(S(=O)(=O)N2CCC(C(=O)O)CC2)cc1,19.6
3,Cc1nc2cc(NC(=O)c3ccc(Br)s3)ccc2s1,20
4,CCN(c1ccc2c(c1)OCO2)S(=O)(=O)c1cc(Br)cc2c1N(C(=O)C1CC1)CC2,8.05
5,c1nc2sc3c(c2c2nnnn12)CCCC3,0.454
6,COc1cc(O)c(C(CC(=O)N2CCCCC2)c2cc(OC)c(OC)c(OC)c2)c(OC)c1 (stereo not shown),14.2
7,Cc1ccc(C(O)(C(=O)NNS(=O)(=O)c2ccc(C)cc2)c2ccc(C)cc2)cc1,-5.55
8,CC1CCN(Cc2c(C#N)c3ccccc3n2C)CC1,-4.98
9,CCC(=O)NC(=S)Nc1cccc(Cl)c1N1CCCCC1,0.421
10,CC(C1CC1)N(Cc1ccccc1)C(=S)Nc1cccc(C(F)(F)F)c1 (stereo not shown),1.76
11,Cc1nn(C)c(C(=O)NCc2ccc(Cl)cc2)c1Cl,-0.714
12,Cc1cc(C(=O)Nc2ccccc2)oc(=O)c1,11.6
13,COc1ccc(NC(=O)CSc2nnc(NC(=O)c3ccco3)s2)cc1OC,15
14,COc1cc(/C=C2/SC(=S)N(c3c(C)n(C)n(-c4ccccc4)c3=O)C2=O)ccc1O,-28.6
15,Cc1ccc(-c2noc(-c3c(C)noc3C)n2)cc1,7.59
16,CCC(=O)c1ccc(OCC(=O)OCC(=O)Nc2sccc2C(N)=O)cc1,3.22
17,Clc1ccc(OC2CCN(Cc3nc(CC4CC4)no3)CC2)cc1,-38.4
18,COC(=O)c1ccc(Oc2nc(Nc3ccc(F)cc3)nc(N3CCCC3)n2)cc1,-1.54
19,O=C1CC(C(=O)NCCc2ccccc2)SC(=Nc2ccccc2)N1 (stereo not shown),12.1
20,O=C(CCC(=O)c1cccs1)NCc1cccnc1,21.9
21,CCOc1ccc(N2C(=O)CC(N(Cc3ccco3)C(=O)CCC(=O)O)C2=O)cc1 (stereo not shown),27.4
22,CCC(C)NC(=O)c1ccc(CSCc2ccc(Cl)cc2)o1 (stereo not shown),-38.9

row,SMILES,"hERG current change (%, negative = inhibition) at 10uM [%]"
1,CCOCCCn1c(C)nc2c(c1=O)c1nc3ccccc3nc1n2-c1ccc(C)cc1,-8.15
2,CCCCNC(=S)N1CCN(C)CC1.O=C(O)C(=O)O,8.09
3,CCCCNS(=O)(=O)c1ccc(NC(=O)Cc2ccccc2[N+](=O)[O-])cc1,2.97
4,Cc1cc(NC(=O)CSc2nc(=O)cc(N)n2-c2ccc(C)c(C)c2)no1,8.97
5,CCC1CCCCN1CCNS(=O)(=O)c1ccc2c(c1)CCN2C(C)=O (stereo not shown),-1.09
6,O=C(CNS(=O)(=O)c1ccc(Cl)cc1)N/N=C/c1ccco1,10.5
7,NS(=O)(=O)c1ccc(CCNc2nc(C(F)(F)F)nc3ccccc23)cc1,26
8,CCn1c(=S)[nH]c2cc(C(=O)OC)ccc2c1=O,19.6
9,CCC1(C)Cc2[nH]c(=O)c(C#N)cc2CO1 (stereo not shown),12.7
10,O=C(Nc1ccccc1[N+](=O)[O-])c1cc(S(=O)(=O)Nc2ccccn2)ccc1Cl,14.7
11,Cc1nc(N)nc(Cl)c1Cc1ccc(Cl)cc1,16.1
12,CC(NC(=O)Cn1cccc1C(=O)c1ccccc1)c1ccccc1 (stereo not shown),17.8
13,Cc1ccc(CS(=O)Cc2ccc(C(=O)NCCc3ccccc3)o2)cc1 (stereo not shown),-7.62
14,Cc1ccc(C(=O)Nc2nnc(S(=O)(=O)N3CCN(c4ccc(F)cc4)CC3)s2)cc1,2.59
15,COC(=O)c1c(NC(=O)c2cccc(S(=O)(=O)N3CCN(C)CC3)c2)sc(C)c1C,13.4
16,CC(=O)N/C(=C\c1ccccc1)C(=O)OCCCOC(=O)/C(=C/c1ccccc1)NC(C)=O,2.78
17,C/C(=N\O)c1ccc2c3ccccc3n(C)c2c1,25.3
18,O=C(CSc1ccccc1Cl)c1ccco1,-7.76
19,Cc1cc(=O)[nH]c(SCC(=O)Nc2ccc(C)c(S(=O)(=O)N3CCCCC3)c2)n1,-4.5
20,Cc1cc(NC(=O)CCC(=O)N(CC2CCCO2)C(C(=O)NC2CCCC2)c2ccccc2C)no1 (stereo not shown),3.34
21,Cc1csc2c(SCC(=O)NNS(=O)(=O)c3cccc(C(F)(F)F)c3)ncnc12,21.7
22,O=C(COc1ncnc2ccccc12)c1ccc(Cl)cc1,26
